# According to the supplement of paper PMC8728848:
# The other results are listed elsewhere or left out.
# B1: StdA (Salmonella typhimurium), Q8Z3Z0 (protein)
# chain: MAAAGMMYGASVFAADTTPTAGPFGSGKILFTGTITNSPCDIAPGDDAITVPFGQISYRKLNTANATTDSKPFTIHLQNCAFDPNETTIAGSAGKMSKVTVSFSGTADTSGKAYVSTGSAQHVGVQLLKGDNTSLITPNTPMPDGDAQQLQAGNNELNFFARLIALTDAATPGDVNASVTYTLKYL
# What was measured:
# Experiment in all cases: glycan array binding signal (z-score within array); higher = stronger binding
# Conditions in all cases: glycan notation: IUPAC condensed, linker removed
# Fuc(a1-2)Gal = target: Fuc(a1-2)Gal
# Outline: (§1)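 The Consortium for Functional Glycomics database supplied 3228 glycan arrays, of which those lacking an available protein sequence were dropped. The binding signal, a within-array Z-score, was averaged across arrays of the same protein sequence and across linkers. Negative scores can be read as non-binding.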
# Fuc(a1-2)Gal(b1-3)GalNAc = target: Fuc(a1-2)Gal(b1-3)GalNAc
# Outline: as §1
# [1] = target: Fuc(a1-2)Gal(b1-3)GalNAc(b1-3)Gal
# Outline: as §1
# [2] = target: Fuc(a1-2)Gal(b1-3)GalNAc(b1-3)Gal(a1-4)Gal(b1-4)Glc
# Outline: as §1
# [3] = target: Fuc(a1-2)Gal(b1-3)GalNAc(b1-4)[Neu5Ac(a2-3)]Gal(b1-4)Glc
# Outline: as §1
# Fuc(a1-2)Gal(b1-3)GlcNAc = target: Fuc(a1-2)Gal(b1-3)GlcNAc
# Outline: as §1
# [4] = target: Fuc(a1-2)Gal(b1-3)GlcNAc(b1-2)Man(a1-3)[Fuc(a1-2)Gal(b1-3)GlcNAc(b1-2)Man(a1-6)]Man(b1-4)GlcNAc(b1-4)GlcNAc
# Outline: as §1
# [5] = target: Fuc(a1-2)Gal(b1-3)GlcNAc(b1-3)Gal(b1-4)Glc
# Outline: as §1
# [6] = target: Fuc(a1-2)Gal(b1-3)GlcNAc(b1-3)[Gal(b1-4)[Fuc(a1-3)]GlcNAc(b1-6)]Gal(b1-4)Glc
# Outline: as §1
# [7] = target: Fuc(a1-2)Gal(b1-3)[Fuc(a1-4)]GlcNAc
# Outline: as §1
# [8] = target: Fuc(a1-2)Gal(b1-3)[Fuc(a1-4)]GlcNAc(b1-2)Man(a1-3)[Fuc(a1-2)Gal(b1-3)[Fuc(a1-4)]GlcNAc(b1-2)Man(a1-6)]Man(b1-4)GlcNAc(b1-4)GlcNAc
# Outline: as §1
# Fuc(a1-2)Gal(b1-4)Glc = target: Fuc(a1-2)Gal(b1-4)Glc
# Outline: as §1
# Fuc(a1-2)Gal(b1-4)Glc6S = target: Fuc(a1-2)Gal(b1-4)Glc6S
# Outline: as §1
# Fuc(a1-2)Gal(b1-4)GlcNAc = target: Fuc(a1-2)Gal(b1-4)GlcNAc
# Outline: as §1
# [9] = target: Fuc(a1-2)Gal(b1-4)GlcNAc(b1-2)Man(a1-3)[Fuc(a1-2)Gal(b1-4)GlcNAc(b1-2)Man(a1-6)]Man(b1-4)GlcNAc(b1-4)GlcNAc
# Outline: as §1
# [10] = target: Fuc(a1-2)Gal(b1-4)GlcNAc(b1-3)Gal(b1-4)GlcNAc
# Outline: as §1
# [11] = target: Fuc(a1-2)Gal(b1-4)GlcNAc(b1-3)Gal(b1-4)GlcNAc(b1-3)Gal(b1-4)GlcNAc
# Outline: as §1
# [12] = target: Fuc(a1-2)Gal(b1-4)GlcNAc6S
# Outline: as §1
# [13] = target: Fuc(a1-2)Gal(b1-4)[Fuc(a1-3)]GlcNAc
# Outline: as §1
# [14] = target: Fuc(a1-2)Gal(b1-4)[Fuc(a1-3)]GlcNAc(b1-2)Man(a1-3)[Fuc(a1-2)Gal(b1-4)[Fuc(a1-3)]GlcNAc(b1-2)Man(a1-6)]Man(b1-4)GlcNAc(b1-4)GlcNAc
# Outline: as §1
# [15] = target: Fuc(a1-2)Gal(b1-4)[Fuc(a1-3)]GlcNAc(b1-3)Gal(b1-4)[Fuc(a1-3)]GlcNAc
# Outline: as §1
# [16] = target: Fuc(a1-2)Gal(b1-4)[Fuc(a1-3)]GlcNAc(b1-3)Gal(b1-4)[Fuc(a1-3)]GlcNAc(b1-3)Gal(b1-4)[Fuc(a1-3)]GlcNAc
# Outline: as §1
# Fuc(a1-2)Gal6S(b1-4)Glc = target: Fuc(a1-2)Gal6S(b1-4)Glc
# Outline: as §1
# [17] = target: Fuc(a1-2)Gal6S(b1-4)Glc6S
# Outline: as §1
# [18] = target: Fuc(a1-2)Gal6S(b1-4)GlcNAc
# Outline: as §1
# Fuc(a1-2)[Gal(a1-3)]Gal = target: Fuc(a1-2)[Gal(a1-3)]Gal
# Outline: as §1
# [19] = target: Fuc(a1-2)[Gal(a1-3)]Gal(b1-3)GlcNAc
# Outline: as §1
# [20] = target: Fuc(a1-2)[Gal(a1-3)]Gal(b1-3)GlcNAc(b1-2)Man(a1-3)[Fuc(a1-2)[Gal(a1-3)]Gal(b1-3)GlcNAc(b1-2)Man(a1-6)]Man(b1-4)GlcNAc(b1-4)GlcNAc
# Outline: as §1
# [21] = target: Fuc(a1-2)[Gal(a1-3)]Gal(b1-4)Glc
# Outline: as §1
# [22] = target: Fuc(a1-2)[Gal(a1-3)]Gal(b1-4)GlcNAc
# Outline: as §1
# [23] = target: Fuc(a1-2)[Gal(a1-3)]Gal(b1-4)GlcNAc(b1-2)Man(a1-3)[Fuc(a1-2)[Gal(a1-3)]Gal(b1-4)GlcNAc(b1-2)Man(a1-6)]Man(b1-4)GlcNAc(b1-4)GlcNAc
# Outline: as §1
# [24] = target: Fuc(a1-2)[Gal(a1-3)]Gal(b1-4)[Fuc(a1-3)]GlcNAc
# Outline: as §1
# [25] = target: Fuc(a1-2)[Gal(a1-4)]Gal(b1-4)GlcNAc
# Outline: as §1
# [26] = target: Fuc(a1-2)[GalNAc(a1-3)]Gal
# Outline: as §1
# [27] = target: Fuc(a1-2)[GalNAc(a1-3)]Gal(b1-3)GlcNAc
# Outline: as §1
# [28] = target: Fuc(a1-2)[GalNAc(a1-3)]Gal(b1-3)GlcNAc(b1-2)Man(a1-3)[Fuc(a1-2)[GalNAc(a1-3)]Gal(b1-3)GlcNAc(b1-2)Man(a1-6)]Man(b1-4)GlcNAc(b1-4)GlcNAc
# Outline: as §1
# [29] = target: Fuc(a1-2)[GalNAc(a1-3)]Gal(b1-4)Glc
# Outline: as §1
# [30] = target: Fuc(a1-2)[GalNAc(a1-3)]Gal(b1-4)GlcNAc
# Outline: as §1
# [31] = target: Fuc(a1-2)[GalNAc(a1-3)]Gal(b1-4)GlcNAc(b1-2)Man(a1-3)[GalNAc(a1-3)[Fuc(a1-2)]Gal(b1-4)GlcNAc(b1-2)Man(a1-6)]Man(b1-4)GlcNAc(b1-4)GlcNAc
# Outline: as §1
# [32] = target: Fuc(a1-2)[GalNAc(a1-3)]Gal(b1-4)GlcNAc(b1-3)Gal(b1-4)GlcNAc
# Outline: as §1
# [33] = target: Fuc(a1-2)[GalNAc(a1-3)]Gal(b1-4)GlcNAc(b1-3)Gal(b1-4)GlcNAc(b1-3)Gal(b1-4)GlcNAc
# Outline: as §1
# [34] = target: Fuc(a1-2)[GalNAc(a1-3)]Gal(b1-4)[Fuc(a1-3)]GlcNAc
# Outline: as §1
# [35] = target: Fuc(a1-2)[GalNAc(a1-4)]Gal(b1-4)GlcNAc
# Outline: as §1
# [36] = target: Fuc(a1-2)[GalNAc(b1-3)]Gal
# Outline: as §1
# Fuc(a1-3)GlcNAc = target: Fuc(a1-3)GlcNAc
# Outline: as §1
# [37] = target: Fuc(a1-3)[Gal(b1-4)]Glc6S
# Outline: as §1
# [38] = target: Fuc(a1-3)[Gal(b1-4)]GlcNAc
# Outline: as §1
# [39] = target: Fuc(a1-3)[Gal(b1-4)]GlcNAc(b1-2)Man(a1-3)[Fuc(a1-3)[Gal(b1-4)]GlcNAc(b1-2)Man(a1-6)]Man(b1-4)GlcNAc(b1-4)GlcNAc
# Outline: as §1
# [40] = target: Fuc(a1-3)[Gal(b1-4)]GlcNAc(b1-2)Man(a1-6)[Gal(b1-4)GlcNAc(b1-2)Man(a1-3)]Man(b1-4)GlcNAc(b1-4)GlcNAc
# Outline: as §1
# [41] = target: Fuc(a1-3)[Gal(b1-4)]GlcNAc(b1-3)Gal(b1-3)[Fuc(a1-4)]GlcNAc
# Outline: as §1
# [42] = target: Fuc(a1-3)[Gal(b1-4)]GlcNAc(b1-4)Gal(b1-4)[Fuc(a1-3)]GlcNAc
# Outline: as §1
# [43] = target: Fuc(a1-3)[Gal(b1-4)]GlcNAc(b1-4)Gal(b1-4)[Fuc(a1-3)]GlcNAc(b1-4)Gal(b1-4)[Fuc(a1-3)]GlcNAc
# Outline: as §1
# [44] = target: Fuc(a1-3)[Gal(b1-4)]GlcNAc6S
# Outline: as §1
# [45] = target: Fuc(a1-3)[Gal3S(b1-4)]Glc6S
# Outline: as §1
# [46] = target: Fuc(a1-3)[Gal3S(b1-4)]GlcNAc
# Outline: as §1
# [47] = target: Fuc(a1-3)[Gal3S(b1-4)]GlcNAc6S
# Outline: as §1
# [48] = target: Fuc(a1-3)[GalNAc(b1-4)]GlcNAc
# Outline: as §1
# [49] = target: Fuc(a1-3)[Neu5Ac(a2-3)]Gal(b1-4)GlcNAc(b1-3)GalNAc
# Outline: as §1
# Fuc(a1-4)GlcNAc = target: Fuc(a1-4)GlcNAc
# Outline: as §1
# Fuc(b1-3)GlcNAc = target: Fuc(b1-3)GlcNAc
# Outline: as §1
binder,measurement,setting,value
B1,glycan array binding signal (z-score),Fuc(a1-2)Gal,-0.506
same,glycan array binding signal (z-score),Fuc(a1-2)Gal(b1-3)GalNAc,0.436
same,glycan array binding signal (z-score),[1],0.329
same,glycan array binding signal (z-score),[2],-0.377
same,glycan array binding signal (z-score),[3],-0.378
same,glycan array binding signal (z-score),Fuc(a1-2)Gal(b1-3)GlcNAc,-0.15
same,glycan array binding signal (z-score),[4],10.3
same,glycan array binding signal (z-score),[5],-0.459
same,glycan array binding signal (z-score),[6],0.192
same,glycan array binding signal (z-score),[7],-0.361
same,glycan array binding signal (z-score),[8],-0.217
same,glycan array binding signal (z-score),Fuc(a1-2)Gal(b1-4)Glc,-0.451
same,glycan array binding signal (z-score),Fuc(a1-2)Gal(b1-4)Glc6S,0.205
same,glycan array binding signal (z-score),Fuc(a1-2)Gal(b1-4)GlcNAc,-0.284
same,glycan array binding signal (z-score),[9],0.883
same,glycan array binding signal (z-score),[10],-0.306
same,glycan array binding signal (z-score),[11],0.168
same,glycan array binding signal (z-score),[12],-0.498
same,glycan array binding signal (z-score),[13],-0.448
same,glycan array binding signal (z-score),[14],2.3
same,glycan array binding signal (z-score),[15],1.11
same,glycan array binding signal (z-score),[16],1.04
same,glycan array binding signal (z-score),Fuc(a1-2)Gal6S(b1-4)Glc,1.17
same,glycan array binding signal (z-score),[17],0.124
same,glycan array binding signal (z-score),[18],-0.527
same,glycan array binding signal (z-score),Fuc(a1-2)[Gal(a1-3)]Gal,-0.146
same,glycan array binding signal (z-score),[19],-0.121
same,glycan array binding signal (z-score),[20],-0.48
same,glycan array binding signal (z-score),[21],0.077
same,glycan array binding signal (z-score),[22],-0.14
same,glycan array binding signal (z-score),[23],-0.604
same,glycan array binding signal (z-score),[24],0.507
same,glycan array binding signal (z-score),[25],-0.437
same,glycan array binding signal (z-score),[26],0.692
same,glycan array binding signal (z-score),[27],0.337
same,glycan array binding signal (z-score),[28],-0.063
same,glycan array binding signal (z-score),[29],-0.441
same,glycan array binding signal (z-score),[30],-0.623
same,glycan array binding signal (z-score),[31],1.26
same,glycan array binding signal (z-score),[32],-0.306
same,glycan array binding signal (z-score),[33],1.22
same,glycan array binding signal (z-score),[34],0.068
same,glycan array binding signal (z-score),[35],-0.365
same,glycan array binding signal (z-score),[36],-0.126
same,glycan array binding signal (z-score),Fuc(a1-3)GlcNAc,0.132
same,glycan array binding signal (z-score),[37],1.41
same,glycan array binding signal (z-score),[38],0.14
same,glycan array binding signal (z-score),[39],0.457
same,glycan array binding signal (z-score),[40],-0.251
same,glycan array binding signal (z-score),[41],0.343
same,glycan array binding signal (z-score),[42],-0.624
same,glycan array binding signal (z-score),[43],-0.498
same,glycan array binding signal (z-score),[44],0.759
same,glycan array binding signal (z-score),[45],6.5
same,glycan array binding signal (z-score),[46],0.034
same,glycan array binding signal (z-score),[47],-0.434
same,glycan array binding signal (z-score),[48],-0.729
same,glycan array binding signal (z-score),[49],4.78
same,glycan array binding signal (z-score),Fuc(a1-4)GlcNAc,-0.427
same,glycan array binding signal (z-score),Fuc(b1-3)GlcNAc,-0.73
